# Reference: the supplement of paper PMC10369915
# The other results are listed elsewhere or left out. Rule as the data show it: active = 3.2 or more and inactive = the rest. Only a few entries rise above the background.
# Assays:
# Experiment in all cases: enrichment score (SH2-bound / input frequency) (ratio); bacterial display of known human phosphotyrosine sites (pTyr-Var adds point mutants) read by sequencing; higher = stronger binding; tyrosines were phosphorylated by kinases first
# Settings in all cases: peptide library: pTyr-Var
# SHP2 C-SH2 domain E139D = biological target: SHP2 C-SH2 domain E139D
# [1] = biological target: SHP2 C-SH2 domain wild-type
# SHP2 N-SH2 domain L43F = biological target: SHP2 N-SH2 domain L43F
# SHP2 N-SH2 domain T42A = biological target: SHP2 N-SH2 domain T42A
# SHP2 N-SH2 domain T52S = biological target: SHP2 N-SH2 domain T52S
# [2] = biological target: SHP2 N-SH2 domain wild-type
# 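Also: displayed peptides selected on beads carrying the immobilized SH2 domain, with library peptides lacking any tyrosine serving as negative controls.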
Binder,enrichment score (SHP2 C-SH2 domain E139D),enrichment score [1],enrichment score (SHP2 N-SH2 domain L43F),enrichment score (SHP2 N-SH2 domain T42A),enrichment score (SHP2 N-SH2 domain T52S),enrichment score [2]
FLAVGYHMPHI [IDS_Y225_K227M],active: 3.31,inactive: 2.62,inactive: 2.37,inactive: 3,inactive: 2.34,inactive: 3.13
DRTVHYVDEKG [IFT140_Y216_G212R],inactive: 0.53,inactive: 0.599,inactive: 0.676,inactive: 0.628,inactive: 0.517,inactive: 0.712
NNDLCYWVLEL [IARS1_Y434_P437L],inactive: 0.812,inactive: 1.46,inactive: 1.16,inactive: 1.07,inactive: 0.879,inactive: 2.22
IKIMGSSIRTI [IDS_Y490_Y490S],inactive: 1.01,inactive: 0.861,inactive: 0.958,inactive: 0.902,inactive: 0.794,inactive: 0.705
NGVSYYINLCQ [IGF2R_Y2025],inactive: 0.727,inactive: 0.909,inactive: 0.649,inactive: 0.631,inactive: 0.559,inactive: 0.968
CRIELYRIVES [IGFBP1_Y181_V183I],inactive: 1.21,inactive: 1.35,inactive: 1.1,inactive: 0.854,inactive: 0.966,inactive: 1.54
KKIMGYSIRTI [IDS_Y490_I485K],inactive: 2.38,inactive: 2.22,inactive: 2.2,inactive: 2.22,inactive: 2.28,inactive: 2.13
IALNSCHSRNC [IFNGR1_Y397_Y397C],inactive: 1.49,inactive: 1.22,inactive: 1.61,inactive: 1.05,inactive: 1.53,inactive: 1.16
GDPTEYYITAI [IGSF22_Y501_S503I],inactive: 0.481,inactive: 1.03,inactive: 0.735,inactive: 0.764,inactive: 0.658,inactive: 0.897
FLAVEYHKPHI [IDS_Y225_G224E],inactive: 1.73,inactive: 2.07,inactive: 2.03,inactive: 3.17,inactive: 1.75,inactive: 2.41
AMGPVYQAAAL [HYOU1_Y421_A419P],inactive: 0.723,inactive: 0.787,inactive: 0.77,inactive: 0.646,inactive: 0.705,inactive: 0.759
RSHRSYSCQVM [IGLL1_Y192_R189H],inactive: 1.75,inactive: 1.44,inactive: 1.3,inactive: 1.23,inactive: 1.57,inactive: 1.28
YTFTSYYMHWV [IGHV1-46_Y51],inactive: 1.97,inactive: 1.97,inactive: 1.64,inactive: 1.62,inactive: 1.82,inactive: 1.87
RKIMGYSIRTI [IDS_Y490_I485R],inactive: 1.04,inactive: 0.765,inactive: 0.643,inactive: 1,inactive: 0.881,inactive: 0.667
DERQPYVHMNG [IGF1R_Y1346_A1347V],inactive: 0.512,inactive: 0.604,inactive: 0.626,inactive: 0.614,inactive: 0.604,inactive: 0.779
FLAVGYHKLHI [IDS_Y225_P228L],inactive: 3.13,active: 3.53,inactive: 3.18,inactive: 2.61,inactive: 2.59,active: 3.53
RLQKLYLDRNL [IGFALS_Y248],inactive: 1.08,inactive: 0.904,inactive: 1.41,inactive: 1.29,inactive: 0.84,inactive: 0.91
HILFRYPKEFQ [IDS_Y234_P231L],inactive: 1.41,inactive: 0.768,inactive: 0.805,inactive: 0.914,inactive: 0.703,inactive: 0.71
HSGVSYFINLC [IGF2R_Y2024_N2020S_YF],inactive: 0.979,inactive: 1.38,inactive: 0.642,inactive: 0.815,inactive: 0.714,inactive: 1.36

Binder,enrichment score (SHP2 C-SH2 domain E139D),enrichment score [1],enrichment score (SHP2 N-SH2 domain L43F),enrichment score (SHP2 N-SH2 domain T42A),enrichment score (SHP2 N-SH2 domain T52S),enrichment score [2]
AMGAVYQAAAL [HYOU1_Y421],inactive: 1.02,inactive: 0.854,inactive: 0.695,inactive: 0.705,inactive: 1.05,inactive: 0.872
IRTIDYRFTVW [IDS_Y497_YF],inactive: 1.01,inactive: 1.04,inactive: 1.09,inactive: 0.989,inactive: 0.921,inactive: 1.15
QKDIFYGLRSL [IGSF10_Y126_T124I],inactive: 1.19,inactive: 0.818,inactive: 1.09,inactive: 0.995,inactive: 1.07,inactive: 0.95
HSGVSYYINLC [IGF2R_Y2024_N2020S],inactive: 0.58,inactive: 1.07,inactive: 0.637,inactive: 0.657,inactive: 0.545,inactive: 1.12
GDPTEYYSTAI [IGSF22_Y501],inactive: 0.622,inactive: 0.638,inactive: 0.664,inactive: 0.534,inactive: 0.558,inactive: 0.758
QQMGTYGVRAA [ICAM2_Y260_R256Q],inactive: 0.71,inactive: 0.501,inactive: 0.503,inactive: 0.484,inactive: 0.477,inactive: 0.729
FIPFRYPKEFQ [IDS_Y234_H229Y_YF],inactive: 1.25,inactive: 0.954,inactive: 1.21,inactive: 1.12,inactive: 1.31,inactive: 1.29
IGCHAYGDQFR [IDH1_Y135_R132C_YF],inactive: 1.01,inactive: 1.11,inactive: 0.95,inactive: 0.702,inactive: 1.25,inactive: 1.14
RFQKLYLDRNL [IGFALS_Y248_L244F],inactive: 0.774,inactive: 0.77,inactive: 0.612,inactive: 0.691,inactive: 0.701,inactive: 0.793
GKFFQYDTWKQ [IGF2_Y116],inactive: 1.27,inactive: 0.934,inactive: 1.2,inactive: 0.862,inactive: 0.858,inactive: 0.798
REETTYLPLTS [ICAM3_Y527_S525T],inactive: 0.714,inactive: 0.655,inactive: 0.746,inactive: 0.629,inactive: 0.541,inactive: 0.775
AKVKPYINGTS [IBTK_Y1064_V1065I],inactive: 1.18,inactive: 0.775,inactive: 1.25,inactive: 0.72,inactive: 1.5,inactive: 1.15
CRIELYRVVES [IGFBP1_Y181],inactive: 1.29,inactive: 1.38,inactive: 1.2,inactive: 0.97,inactive: 1.11,inactive: 1.61
FPAVGYHKPHI [IDS_Y225_L221P],inactive: 2.23,inactive: 2.19,inactive: 1.97,inactive: 2.11,inactive: 1.93,inactive: 2.11
NGVSFYINLCQ [IGF2R_Y2025_YF],inactive: 0.897,inactive: 1.07,inactive: 0.832,inactive: 0.592,inactive: 0.697,inactive: 1.09
YIPFRYPKEFQ [IDS_Y234_H229Y],inactive: 0.855,inactive: 0.815,inactive: 0.899,inactive: 0.896,inactive: 0.892,inactive: 0.734
QKDTFYGLRSL [IGSF10_Y126],inactive: 0.809,inactive: 0.753,inactive: 0.847,inactive: 1.15,inactive: 0.641,inactive: 1.16
ILKPDYQPLAV [HYDIN_Y1072_I1077V],inactive: 1.2,inactive: 0.801,inactive: 1.15,inactive: 0.804,inactive: 0.957,inactive: 0.863
